Reference: PubChem BioAssay AID1030 (National Center for Advancing Translational Sciences (NCATS), 2008)
About 16,000 (7.3%) of roughly 220,000 compounds were called active. This list was built around the results that the source calls inconclusive (neither active nor inactive); the mix of calls is not that of the screen. Calls come from the whole dose curve; as a rule, active = well fitted inhibition curve with a large enough effect (not every such curve was filed as active); inconclusive = small, poorly fitted or top-dose-only effect, or another doubt; inactive = no such curve, though single readings can be large or run the other way. Potencies of inconclusive entries are left out as doubtful fits. A structure can be active in one record and inactive in another.

The compounds below were run against Aldehyde dehydrogenase 1A1 (Homo sapiens) (UniProt P00352) (assay: qHTS Assay for Inhibitors of Aldehyde Dehydrogenase 1 (ALDH1A1)). Conditions: Purified ALDH1A1, NADH fluorescence, propionaldehyde substrate; series mostly up to 75.3 µM.
Chain of UniProt P00352 (P00352 whole entry, looked up): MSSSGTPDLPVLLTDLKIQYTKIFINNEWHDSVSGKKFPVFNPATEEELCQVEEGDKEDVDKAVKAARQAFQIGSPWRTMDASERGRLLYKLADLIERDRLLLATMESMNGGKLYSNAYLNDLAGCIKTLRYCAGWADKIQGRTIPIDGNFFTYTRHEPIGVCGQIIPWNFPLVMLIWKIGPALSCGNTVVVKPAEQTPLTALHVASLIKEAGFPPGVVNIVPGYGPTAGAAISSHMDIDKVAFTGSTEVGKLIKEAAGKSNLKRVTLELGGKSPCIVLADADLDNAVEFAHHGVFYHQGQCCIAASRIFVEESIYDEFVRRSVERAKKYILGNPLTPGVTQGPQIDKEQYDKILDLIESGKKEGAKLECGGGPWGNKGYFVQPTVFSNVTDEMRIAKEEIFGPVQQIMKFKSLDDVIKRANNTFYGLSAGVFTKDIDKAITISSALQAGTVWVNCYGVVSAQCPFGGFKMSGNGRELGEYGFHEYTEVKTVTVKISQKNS
Potency is the fitted concentration of half-maximal effect; tags give direction and shape of the fitted curve.

| SMILES | Potency |
| --- | --- |
| COc1ccc(C2=NN(CCC(=O)NCc3cccs3)C(=O)CC2)cc1 | inactive |
| Cc1ccc(-c2nc3ccccn3c2Nc2ccccc2)o1 | inconclusive [inhibitor, partial curve] |
| CSc1nc2ccc(NS(=O)(=O)c3c(Cl)cccc3Cl)cc2s1 | inconclusive [inhibitor, single point] |
| Cc1ccc2oc(=O)n(CCCOc3ccccc3)c2c1 | inactive |
| COc1ccc(/C=C2\CCC/C(=C\C=N\N(C)C)C2=O)cc1 | active: 3.98 µM |
| CCn1c(N2CCN(C(=O)C34CC5CC(CC(C5)C3)C4)CC2)nc2ccccc21 | inconclusive [inhibitor, partial curve] |
| NC(=O)c1ccccc1NC(=O)/C=C/c1c(Cl)cccc1Cl | inconclusive [inhibitor, single point] |
| Cc1c(C(=O)c2ccc([N+](=O)[O-])cc2)c(=O)n(C)c(=O)n1C | inactive |
| Cc1nn(-c2ccc(S(=O)(=O)O)cc2)c(O)c1N=Nc1ccc(-c2ccc(N=Nc3ccc4c(S(=O)(=O)O)cc(S(=O)(=O)O)c(N)c4c3O)c(O)c2)cc1O.[Cu].[Cu] | inconclusive [inhibitor, single point] |
| COc1cccc2[nH]c3c(N4CCC(C(N)=O)CC4)ncnc3c12 | inconclusive [inhibitor, partial curve] |
| Cn1cc([N+](=O)[O-])c(C(=O)Nc2cnn(Cc3ccc(F)cc3)c2)n1 | inactive |
| COc1ccc(-c2ccc(SCC(=O)NCc3ccco3)nn2)cc1OC | inconclusive [inhibitor, single point] |
| COc1ccc2oc(=O)c(C(=O)C[n+]3cccc(C)c3)cc2c1 | active: 14.1 µM |
| CCOC(=O)Cc1csc(/C(=N/O)C(N)=O)n1 | active: 28.2 µM |
| COc1ccc2c(c1)SC(C)CC2=O (stereo unspecified) | inconclusive [inhibitor, partial curve] |
| Cc1nnc(NC(=O)CC(CN(C)S(=O)(=O)c2ccccc2)c2ccccc2)s1 (stereo unspecified) | inconclusive [inhibitor, single point] |
| CCCOc1ccc(NC(=O)C2CC(=O)N(C)C(=Nc3cccc(OC)c3)S2)cc1 (stereo unspecified) | inactive |
| Cc1c(Cl)cccc1NC(=O)CC1SC(=NCC2CCCO2)NC1=O (stereo unspecified) | inconclusive [inhibitor, single point] |
| Cc1ccc(-c2nc3cnccn3c2Nc2ccc3c(c2)OCO3)o1 | active: 14.1 µM |
| CCOC(=O)c1[nH]c2ccc(F)cc2c1NC(=O)CN1CCc2cc(OC)c(OC)cc2C1 | inconclusive [inhibitor, single point] |
| Cc1cccc(N2CCN(S(=O)(=O)c3cccc4nonc34)CC2C)c1 (stereo unspecified) | inconclusive [inhibitor, single point] |
| O=C(Nc1ccccc1-c1nnn(CC(=O)N2CCOCC2)n1)c1ccccc1F | inconclusive [inhibitor, single point] |
| O=[N+]([O-])c1ccc(/C=N/NC(=S)Nc2ccccc2C(F)(F)F)o1 | inconclusive [inhibitor, single point] |
| Cc1ccc(S(=O)(=O)N2CCC(=O)N(CCOC(=O)Nc3ccc(C)c(C)c3)CC2)cc1 | inactive |

| SMILES | Potency |
| --- | --- |
| CN(C)c1ccc(/C=N/NC(=O)c2ccc(Cn3cc(Br)cn3)o2)cc1 | active: 17.8 µM |
| COc1ccc(C(=O)N(O)c2ccccc2)cc1 | inactive |
| CCOC(=O)C1(Cc2ccc(OC)cc2)CCN(C(=O)c2cc3ccccc3[nH]2)CC1 | inconclusive [inhibitor, single point] |
| CC1CCN(c2nc(-c3ccccc3)c(C#N)c(=O)[nH]2)CC1 | inconclusive [inhibitor, single point] |
| O=C(CCl)NNc1cccc(Cl)n1 | active: 10 µM |
| Cc1c(Br)c([N+](=O)[O-])nn1CC(=O)NCCc1ccc(Cl)cc1 | inactive |
| O=C(CSc1nnc(Cn2nnc3ccccc32)o1)N(Cc1ccc(F)cc1)c1ccccc1 | inconclusive [inhibitor, single point] |
| Cc1ccc(C2=C(CC(=O)O)C(=O)CC2)cc1 | inconclusive [inhibitor, partial curve, poor fit] |
| Fc1ccccc1CN1CCCCCCC1 | active: 14.1 µM |
| CC(=O)N1CCc2cc(C(=O)CN3CCN(C(=O)c4ccco4)CC3)ccc21 | active: 11.2 µM |
| C=CCn1c(Cc2nc3ccc(Cl)cc3[nH]2)n[nH]c1=S | active: 10 µM |
| Cc1c(NC(=S)NC(=O)c2sc3ccccc3c2Cl)cccc1C(=O)O | active: 25.1 µM |
| Nc1c(C(=O)Nc2nc3ccccc3s2)sc2nc(-c3cccs3)ccc12 | inconclusive [inhibitor, full curve] |
| Cc1nc(SCC(=O)N2CCN(C(=O)c3ccco3)CC2)c2c(C)c(C)sc2n1 | inconclusive [inhibitor, partial curve] |
| COc1cc(OC)c2c(C)c(Cl)c(=O)oc2c1 | inconclusive [inhibitor, partial curve] |
| COCc1cc(C)nc(N2CCN(c3ccccc3)CC2)c1C#N | inconclusive [inhibitor, single point] |
| CCc1ccc(CC)c(S(=O)(=O)Nc2ccc(O)c(C(=O)O)c2)c1 | inconclusive [inhibitor, single point] |
| Nc1ccc(NC(=O)c2ccccc2)c2c1C(=O)c1ccccc1C2=O | inactive |
| COC(=O)CCCCC1SCC(NC(=O)c2ccccc2)C1=O (stereo unspecified) | inactive |
| CCCc1nc2ccccc2c(C(=O)OCC(=O)Nc2c(C)n(C)n(-c3ccccc3)c2=O)c1CC | inconclusive [inhibitor, partial curve] |
| O=C(NCc1ccccn1)c1cc2c(ccc3ccccc32)oc1=O | inconclusive [inhibitor, partial curve] |
| Cc1cc(NCC(C)C)n2ncnc2n1 | inactive |
| COCCNC(=O)c1ccc2c(c1)NC(=O)CS2 | inactive |
| O=C(O)C1CCC[C@@H]2[C@@H]3CC(CN12)[C@@H]1CCCCN1C3 (stereo partly specified) | inactive |

| SMILES | Potency |
| --- | --- |
| CCOc1ccccc1NC(=O)c1nc[nH]c1C(=O)Nc1ccccc1OCC | inconclusive [inhibitor, single point] |
| COc1ccc(NC(=O)N2CC[C@@]3(CCCN(S(C)(=O)=O)C3)C2)cc1 | inactive |
| Cc1ccc2[nH]c(-c3cccc(N)c3)cc2c1 | inconclusive [inhibitor, single point] |
| COCCCNC(=O)c1c[nH]c2ccc(S(=O)(=O)N3CCc4ccccc43)cc2c1=O | inconclusive [inhibitor, single point] |
| CSCC[C@H](NC(=O)C1CCN(S(=O)(=O)c2ccc(C)cc2)CC1)C(=O)NCc1ccco1 | inconclusive [inhibitor, single point] |
| CCCCC[C@H](O)/C=C/[C@H]1C=CC(=O)[C@@H]1C/C=C\CCCC(=O)O | active: 39.8 µM |
| O=C(Nc1ccccc1N1CCCC1)c1ccc(Cl)cc1Cl | inconclusive [inhibitor, single point] |
| Cc1c(Cl)cnc(NC(=O)COC(=O)CCS(=O)(=O)c2ccccc2)c1Cl | inconclusive [inhibitor, partial curve] |
| COc1ccc(-c2nc(-c3ccc(O)cc3O)cs2)cc1OC | inconclusive [inhibitor, single point] |
| CCCCN(C)C(=O)c1ccc(CS(=O)(=O)c2ccccc2C)o1 | inconclusive [inhibitor, single point] |
| COc1ccc(NC(=O)C2CCN(Cc3cnn(-c4ccccc4)c3-n3cccc3)CC2)cc1OC | inconclusive [inhibitor, full curve] |
| CN1CCc2c(sc3c2C(=O)NC(c2ccccc2)N3)C1 (stereo unspecified) | inconclusive [inhibitor, partial curve] |
| Cc1ccc(Cn2c(SCC(=O)NCc3ccco3)nc3ccsc3c2=O)cc1 | inconclusive [inhibitor, partial curve] |
| CC(=O)c1c(N2CCN(Cc3ccccc3)CC2)nc(=S)n(Cc2ccccc2)c1C | inconclusive [inhibitor, partial curve] |
| CCOC(=O)c1c(NC(=O)c2cc(-c3cccc(O)c3)on2)sc(C(C)=O)c1C | inconclusive [inhibitor, single point] |
| CSc1ccc(/C=N\NC(=O)CC(=O)NC(C)C)cc1 | inconclusive [inhibitor, single point] |
| Cc1ccc(NC(=O)COC(=O)Cn2cnc3ccccc32)c([N+](=O)[O-])c1 | inconclusive [inhibitor, single point] |
| CCOC(=O)c1ccc(N2C(=O)CC(SCC(=O)Nc3ccc(S(N)(=O)=O)cc3)C2=O)cc1 (stereo unspecified) | active: 1.58 µM |
| Cc1ccc(C)c(S(=O)(=O)N2CCN(CC(=O)Nc3ccc4c(c3)CCC4)CC2)c1 | inactive |
| CCOc1cccc(OCCCCN2CCCCC2)c1 | inconclusive [inhibitor, single point] |
| Cc1onc(C(=O)N2C(C)CCCC2C)c1[N+](=O)[O-] (stereo unspecified) | inactive |
| Cc1ccc(S(=O)(=O)NCCN(CCNS(=O)(=O)c2ccc(C)cc2)S(C)(=O)=O)cc1 | inconclusive [inhibitor, single point] |
| CCN(CC)S(=O)(=O)c1cccc(C(=O)N/N=C(\C)c2cccs2)c1 | inconclusive [inhibitor, single point] |
